From the supplement of paper PMC11417369
This is one part of the list.

system: PfSIP2 AP2 domain 1 (GST-tagged); experiment: gcPBM binding intensity (ln(normalized median fluorescence intensity)); higher = stronger DNA binding
Procedure, shortened: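 Each value is the highest Masliner-normalised natural-log median intensity across replicate spots of either orientation of a probe. The probes were primer-extended double-stranded 36-bp intergenic genomic sequences on an Agilent 4 × 180k array, alongside negative controls, exposed for 1 h to GST-tagged P. falciparum DNA-binding domains expressed in E. coli. Bound protein was picked up with Alexa488 anti-GST antibody and scanned at 488 nm.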

Row | Sequence | gcPBM binding intensity (ln)
1 | CTAAATAAAGTTAACACACACATAATATTTATATGT [CACACA_site6368] | 6.83
2 | TACATAAACATTTATACACACATTAGATATACATAT [CACACA_site6329] | 7.12
3 | TCAAAGAGTAGAAAGGTGCTTATGAACGAGATAATT | 7.54
4 | AACTAAATTTATAATTGTACATTAAAATATGTATTA [XGTACX_site479] | 6.95
5 | ACATATACATTTATATGTACTCATTTATCTTATGTA [XGTACX_site6594] | 7.08
6 | TTTTTTAAAACTTCAAAAAGAGCACTTGAATTTTTT [GTGCAC_negctrl_site455] | 7.03
7 | AAATATTACATACACGCACACATTAATATATTTAAA [CACACA_site2603] | 7.38
8 | ACAAGAACAGAACGTACACACACATATATATATATA [CACACA_site9143] | 9.37
9 | ACCTACACAAGCATTAAACACACAAAAGGGATACTT [CACACA_site8273] | 7.18
10 | ACCTAATTTTTATATTGTACATAATATAATATATAT [XGTACX_site1715] | 7.35
11 | CTCCACAAACAAATCGCACACCCAACCCAACATATA [CACACA_site2650] | 7.32
12 | TATTATAATGACTATAGTACATAATATTATTTATAT [XGTACX_site1977] | 6.94
13 | ATAGAACTGAATAAATCTATAAATAAATATATATAT [GTGCAC_negctrl_site604] | 8.42
14 | TCATACCTACATAAAAAAAGGGAAACAAAATGTCAT [XGTACX_negctrl_site34] | 6.75
15 | AATAAATATAAATACACACCCATATATATATATATA [CACACA_site5436] | 9.82
16 | TTAAAAAAAAAAAAAAGTACACACTTATAAAATATT [XGTACX_site1630] | 7.3
17 | ACCAATAAATATTTGGTGCATACATATATATATATA | 9.96
18 | TTGTATCTTCATTTTATCAGAAAAAAAAAAAAAAAT [CACACA_negctrl_site775] | 6.95
19 | ATATATATATATAGGGGTACTTAAATTTTACTAACC [XGTACX_site1832] | 9.3
20 | ATTTTATTTATATACACACACATATATATATTATAT [CACACA_site822] | 7.18
21 | AAAGGGTTACAAGAGGAACACACAAAAAAATAAATA [CACACA_site8406] | 6.74
22 | AATAAATAAATAAATTAATATATATATATATATAGA [CACACA_negctrl_site1661] | 6.98
23 | TTTTGCGAAAAAAGGTGTACTGTAAATATATTGAGG [XGTACX_site8941] | 7.25

Row | Sequence | gcPBM binding intensity (ln)
24 | AGCACCCACCAACACACACACACACCCACCCACCGA [CACACA_site368] | 7.68
25 | AAATAAATAAATATACGTACATATATATAATATATA [XGTACX_site5124] | 7.23
26 | TTTTTTTTTAATTACATAAAATAAAAATATTTCTAT [CACACA_negctrl_site584] | 6.65
27 | TTAATATGTTTAACCATTTTACATAAATTGATTTGT [CACACA_negctrl_site1100] | 6.78
28 | TTTTTTTTGATTTGTTTGCACTTATTTCCACAATAA | 8.23
29 | TACGTAAATTTTAATACACACTATAGGATATTCTGC [CACACA_site5418] | 6.74
30 | TATATATTTATATTTACACACAGTTACTATGTAGAT [CACACA_site3292] | 6.86
31 | ATTAAATGATCAAGGTGTACATTAACAAGAACTATA [XGTACX_site7022] | 7.29
32 | TGAATAAAAAAACCTAGTACTTAAATAAGTATATTT [XGTACX_site7690] | 6.67
33 | TATATATATACATACGTACACACAAATATTAAAATA [CACACA_site1950] | 8.15
34 | TAAAAAAAATAGAAACGTACATAAAAAATAAATAAT [XGTACX_site5796] | 7.24
35 | TCATATAAAACATGCACACATATGTACTCTTATAAA [CACACA_site3748] | 7.44
36 | TTTATTAATGGACACACACACACACCCAAAATAAAA [CACACA_site4294] | 7.44
37 | TATATTTATATATGTTGTACTCTCCAATAATATTCC [XGTACX_site4438] | 6.91
38 | TTTAATATATATATGTGTACATATAAATTATATATA [XGTACX_site8511] | 6.99
39 | TTTATATTTTAAAAAATAATATTATGTATTTTTAAA [TGCATGCA_negctrl_site507] | 6.68
40 | GTACTTATTAAATGTGCATGTTGATATATAAATGTA [TGCATGCA_site902] | 9.03
41 | ATATAATAAACGTGTACACAATTAAATTATTATATA [CACACA_site5017] | 7.47
42 | ATATACATAAAAATATGTACATATAAAATATATACA [XGTACX_site2394] | 7.2
43 | TAGACTCCCAGACACACACACACACCCATATAATAT [CACACA_site593] | 6.99
44 | TTTTTTTTTTTTGGTGCATGCACATTTTGTTTTTTT [TGCATGCA_site570] | 10
45 | TATTATTATTGTTGATGTACATTTAATATAATATAT [XGTACX_site4482] | 7.13
46 | TTTTTAAAAAAATTGATTCTTTTTCTTTTTTTTCTT [XGTACX_negctrl_site127] | 6.42

Row | Sequence | gcPBM binding intensity (ln)
47 | TTTTTTGCTTGGGTGAGAAAAAATAAAATAAAGGAA [TGCATGCA_negctrl_site139] | 7.44
48 | TTATAATCTTTTGGTTCTATAGAATATCAAAAAATA [CACACA_negctrl_site1149] | 6.98
49 | AAAAAATAAAAGGAAAAAAAAAAAAAAAAAAAAAAT [CACACA_negctrl_site635] | 6.7
50 | TATTATTGTCATTTTTTTTTTTTTTTTTTCTATTTC [XGTACX_negctrl_site114] | 6.71
51 | TTATTAAAAATGTATTGTACAAATTTATTAGTAAAT [XGTACX_site4799] | 7.13
52 | ATTTATACAAAGCTTCGTACATAATGTATTCTTTTT [XGTACX_site2166] | 6.76
53 | TTTTAATTGTTTATTTGTACATATGTTTAATTATAT [XGTACX_site571] | 7.29
54 | CCCGAACAAACAAATAAACACACAAAAAAAAATATA [CACACA_site8540] | 7.05
55 | TATTGAAAAAATAAAAGTACAAACTCTTATAATATG [XGTACX_site8196] | 7.2
56 | AACACATACAAACACACACACAAAAAAAAAAAAAAA [CACACA_site393] | 7.29
57 | ATTATATATGTATGGTGTACTAAGAATATTTTTTTA [XGTACX_site1950] | 7
58 | ATTCAATATAAATACACACACACTTTTAATAATTAA [CACACA_site5963] | 7.04
59 | CTAAACAAAAAATAATGTACACATACATAAAAAATA [XGTACX_site1808] | 7.04
60 | AAAAAAACGATCGATCGTACTTATATTTACACATTC [XGTACX_site2883] | 6.87
61 | ACATTCAATAAACGTCGTACACTTTCCTTTTTATGA [XGTACX_site3274] | 7.27
62 | ACATGGTGATAATACTGTACAAAAATAAATAAATAC [XGTACX_site897] | 7.11
63 | TTATTTTTCTAAAAAGCATGCAAATAAAGATATGAA [TGCATGCA_site1032] | 7.12
64 | TTGTTTGGTTATAATTGTACGCATGTAATTACATAT [XGTACX_site4972] | 7.33
65 | TTTTATAGTCTTATGGGTACAAAATATTAACCCACG [XGTACX_site1131] | 6.99
66 | ATATATATTTTATTATGTACTTACTTCTTTTCTTAA [XGTACX_site6163] | 7.21
67 | ATTCACTGGTATGCATGAAAAAAAATATTATTATAA [CACACA_negctrl_site702] | 7.37
68 | TATATATATTTATACACACACATATATTTATATATT [CACACA_site484] | 7.36
69 | TTATGTGTATACTAAGAACACACAAGTTACTTGGTG [CACACA_site8467] | 6.59

Row | Sequence | gcPBM binding intensity (ln)
70 | TGAATACTTATGTTCGCACACATGCAAATTAAAAAA [CACACA_site4048] | 7.86
71 | ATTTTGATAACCGTACGTACATATATATATATATAT [XGTACX_site6605] | 9.64
72 | TTAGTGTATTAATTCTCACACACTAAGAAAAAAAAA [CACACA_site3878] | 6.93
73 | ATAAATCCATGGGTAGTGCGCATTTTTTTTTTTTTT [GTGCAC_site9732] | 8.74
74 | ATAAAATGTATATGAATGCACTTGAAGTTTTTTTTT | 7.31
75 | TCTCCTTGTTCCTTTTTTTTAAAAAAAAACATTAAA [CACACA_negctrl_site679] | 7.58
76 | TATATGTGACATGAATGTACCCAAATTATATAAGAA [XGTACX_site3937] | 7
77 | TATTCTTACACGTTTGCACACTAAAATATATATATA [CACACA_site435] | 8.63
78 | CATAGGAACATAAGTTGTACGCTATACATACAACAT [XGTACX_site1054] | 7
79 | ATTTAATATATTTATTGTACATATAAAATAAAAGAA [XGTACX_site2413] | 7.14
80 | TAATAATAATACCAGCGTACATTTTTCTTTCCTACG [XGTACX_site4056] | 6.94
81 | TGAAAATTAATAAAAAGTACATAGTCAGATTTGTGA [XGTACX_site2450] | 6.99
82 | TCTGTGTTTTTGGGTACACACAAATAGCTTGTATAT [CACACA_site4002] | 7.16
83 | TTCCTTAATCAATATTGTACTTTTTATAAATTTAGT [XGTACX_site3678] | 7.13
84 | TATTTTTTCTTAAACACACACATATATATATATAAT [CACACA_site5567] | 7.27
85 | ATAAAGAAAAGGAACACACAAATATGTAAATATGTA [CACACA_site6356] | 6.82
86 | TTACACATAAATACCATATAAATATAATGCATATCT [CACACA_negctrl_site1731] | 7
87 | TAAAATATTATCTACGCACACATTAAAATAAAAAAA [CACACA_site3709] | 7.17
88 | AAAACATTATTCCATACACACCATACTTTTTAATAA [CACACA_site7326] | 7.3
89 | CATTTGCACACGCACACACACATAAAAAGAAAAATA [CACACA_site6297] | 7.71
